Measurements published in the supplement of paper PMC12217912.
Some of the results follow. Sequences were assembled here from the parent chain. Inactive controls read about 0.05.

B1: TEV protease; numbered along this chain (parent)
chain: MGESLFKGPRDYNPISSSICHLTNESDGHTTSLYGIGFGPFIITNKHLFRRNNGTLVVQSLHGVFKVKDTTTLQQHLVDGRDMIIIRMPKDFPPFPQKLKFREPQREERICLVTTNFQTKSMSSMVSDTSCTFPSGDGIFWKHWIQTKDGQCGSPLVSTRDGFIVGIHSASNFTNTNNYFTSVPKNFMELLTNQEAQQWVSGWRLNADSVLWGGHKVFMVKPEEPFQPVKEATQL

Variants of: B1
Assay: raw area under fraction-flipped curve 0-4 h after induction (AUC4h, not background-subtracted), DNA-recorder readout of cleavage of the substrate (dimensionless); higher = more cleavage of the substrate by the protease variant
Conditions: temperature: 34 °C; time window: 0-4 h after rhamnose induction
Description: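 In vivo DNA recorder in E. coli TOP10(DE3) ΔrhaA at 34 °C. Each TEVp single-site mutant (parent TEVp 0) is paired with a single-site variant of the 7-mer TEVs (canonical ENLYFQ|S). The substrate sits between flexible linkers in a Bxb1-sfGFP-TEVs-SsrA fusion, so cleavage stabilises Bxb1 and speeds flipping of a recombination array, read by NGS. The value is the raw area under the fraction-flipped curve over 0-4 h after rhamnose induction (AUC4h), with ≥20 reads per time point. It is not background-subtracted; inactive controls average about 0.047.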
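Note: Bxb1 expression induced with 0.2% (w/v) L-rhamnose at OD600 near 0.5, cultures sampled hourly, flipped fraction per protease–substrate barcode pair counted by paired-end Illumina sequencing.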

Variant	area with substrate ENLYFCS	area with substrate ENLYFDS	area with substrate ENLYFFS	area with substrate ENLYFGS	area with substrate ENLYFIS	area with substrate ENLYFMS	area with substrate ENLYFRS	area with substrate ENLYFVS	area with substrate ENLYFES	area with substrate ENLYFHS	area with substrate ENLYFPS	area with substrate ENLYFTS	area with substrate ENLYFWS	area with substrate ENLYFYS	area with substrate ENLYFAS	area with substrate ENLYFKS	area with substrate ENLYFLS	area with substrate ENLYFSS	area with substrate ENLYFNS
T71Q	0.0982	0.04	0.0612	0.0912	0.0556	0.0804	0.0423	0.0466											
T71N	0.0756	0.0553		0.0664	0.0333	0.0622	0.0607	0.0402	0.0903	0.0699	0.0656	0.0503	0.0495	0.0423					
G213V	0.0483		0.0644		0.0599						0.0671	0.0635	0.0597		0.0403	0.052			
F218W				0.0566	0.0571		0.0612	0.0585	0.0639		0.0584	0.0426			0.0701	0.079			
F218M		0.077		0.0635	0.059		0.0466		0.0609	0.0779					0.047				
V67Y	0.0674				0.0832		0.0751	0.0433				0.0579		0.0667			0.0559	0.0567	
K7G	0.0549		0.073	0.0402	0.0538	0.0634	0.0596	0.0541	0.0632	0.0677	0.0828	0.0615	0.0738				0.0333		0.0615
K7L	0.0475				0.0528	0.0664	0.0635					0.0541	0.0561	0.0417					
L235K		0.0674			0.0618	0.0712		0.0563				0.0574			0.058	0.0676			
E224G			0.0641		0.0544	0.0489	0.0631	0.0621		0.016	0.0599				0.0794	0.0656			0.0492
V210H	0.0678	0.0693	0.0797		0.0378	0.0547			0.0659	0.0529	0.0616				0.0571		0.0632		
V229S			0.0728		0.0499	0.0644	0.0686	0.0673	0.0608	0.0546	0.0556	0.0661			0.0633	0.0647	0.0652		
V229T			0.0432	0.0667	0.0629								0.0492		0.0557	0.0566	0.0547		
V229A		0.0569	0.0609		0.0455	0.0598		0.0618	0.0895		0.0496	0.0643			0.0698				0.0657
M219N	0.0535				0.0578	0.0638		0.0645	0.0546		0.0551	0.062	0.0465		0.0573	0.0416	0.0647		0.0845
S18H	0.0604	0.0423		0.0338	0.0566	0.0576			0.07		0.0563	0.0625	0.0555	0.0356			0.0598		0.0649

Variant	area with substrate ENLYFCS	area with substrate ENLYFDS	area with substrate ENLYFFS	area with substrate ENLYFGS	area with substrate ENLYFIS	area with substrate ENLYFMS	area with substrate ENLYFRS	area with substrate ENLYFVS	area with substrate ENLYFES	area with substrate ENLYFHS	area with substrate ENLYFPS	area with substrate ENLYFTS	area with substrate ENLYFWS	area with substrate ENLYFYS	area with substrate ENLYFAS	area with substrate ENLYFKS	area with substrate ENLYFLS	area with substrate ENLYFSS	area with substrate ENLYFNS
K230Y		0.0563	0.0638		0.0572	0.0502		0.0546		0.0629	0.0651	0.0576	0.0465		0.0463	0.0554	0.0722	0.0657	
R10T	0.0604	0.063	0.0887			0.0721				0.0873	0.0615	0.0588							0.0644
R10F	0.0717	0.0483	0.0608		0.056	0.0546	0.0499	0.0616	0.0612	0.0559	0.068	0.0705	0.0595	0.0641		0.0575		0.0583	0.079
E25H	0.0595	0.0576	0.0555		0.037	0.071	0.0469	0.0643	0.0422	0.0722	0.0573	0.123	0.0534	0.0515		0.0642			
L73C	0.0648		0.0739	0.065	0.0651	0.0591		0.0459	0.0629	0.0534	0.057	0.0716		0.0573		0.0856	0.0662		
R50G	0.0653	0.0523	0.0721		0.061	0.0615	0.0615				0.0623			0.059					
R50M	0.0619		0.0754		0.0643	0.0662		0.0934	0.0679	0.0364	0.0613					0.0689	0.0592		0.0748
R50I	0.0551	0.0635	0.0581		0.0566	0.0483			0.0733		0.0594					0.085	0.034		
P14L	0.0683	0.0609	0.0754	0.0594	0.0555	0.0754	0.0604	0.0544	0.0646		0.0574	0.0661		0.0492		0.0641	0.051	0.055	
A207G			0.0771		0.0146	0.0491	0.0586	0.0696							0.0663	0.0693			
D27M	0.0472	0.0664	0.0646			0.0558	0.0525	0.0529	0.0721		0.0592	0.0531		0.0375		0.0662		0.063	
T233L	0.0535		0.03	0.062	0.0651	0.0735	0.0559	0.0448				0.0542	0.0502		0.0664			0.0406	0.0553
R51W	0.0625	0.0448	0.0606	0.0692	0.0469	0.0725	0.069	0.0635	0.0597	0.0681	0.0633	0.0629	0.0808			0.0619			0.055
I36K	0.036				0.0428		0.0293	0.0344		0.0501	0.0463						0.048	0.0496	0.0451
K68G	0.0675	0.098	0.0712		0.0542	0.0767	0.0529		0.0679			0.07		0.0671					
F41H	0.0572		0.0625		0.0525	0.0657	0.0623		0.0585	0.0538	0.0627	0.0591	0.0471	0.0492				0.0653	0.0538
